Drawing on the supplement of paper PMC8047034, this text covers log2 surviving fraction for twelve compounds.

Counter-ions that a name gives are not always drawn. This is one part of the list. Many values rest on one well or one pass, so single values are uncertain.

This assay deals with Ov4Carbo. Briefly: log2 surviving fraction (library drug vs vehicle, or drug + carboplatin vs carboplatin alone; relative to plate median); ovarian cancer lines: OVCAR4 is platinum-sensitive and Ov4Carbo platinum-resistant; higher = more cell survival. Conditions: library drug concentration 10 µM; 7 days; carboplatin co-treatment 5 µM.
For `CCCCc1nc(Cl)c(CO)n1Cc1ccc(-c2ccccc2-c2nnn[nH]2)cc1` [Losartan potassium], the log2 surviving fraction is -1.69.

As to `CC(C)CC(N)=O` [Isovaleramide], the log2 surviving fraction came out at 1.15.

In the case of `CN1Cc2c(N)cccc2C(c2ccccc2)C1` (configuration not stated) [Nomifensine Maleate], the log2 surviving fraction was -2.24.

As to `CS(=O)(=O)c1ccc([C@@H](O)[C@@H](CO)NC(=O)C(Cl)Cl)cc1` [Thiamphenicol (Thiophenicol)], the log2 surviving fraction was 0.62.

As to `CCCCCCCCOc1ccccc1C(=O)Nc1ccc(C(=O)OCC[N+](C)(CC)CC)cc1` [Otilonium Bromide], the log2 surviving fraction is 0.526.

Turning to `c1ccc(C2CN3CCSC3=N2)cc1` (configuration not stated) [Tetramisole HCl], the log2 surviving fraction is -0.425.

For `Nc1ccn(C[C@@H](CO)OCP(=O)(O)O)c(=O)n1` [Cidofovir (Vistide)], the log2 surviving fraction amounted to 0.374.

Take `COc1c(C)c2c(c(O)c1C/C=C(\C)CCC(=O)O)C(=O)OC2` [Mycophenolic (Mycophenolate)]: the log2 surviving fraction is -5.17.

Regarding `CCC[C@@H]1C[C@@H](C(=O)N[C@@H]([C@H]2O[C@H](SC)[C@H](O)[C@@H](O)[C@H]2O)[C@@H](C)O)N(C)C1` [Lincomycin hydrochloride (Lincocin)], the log2 surviving fraction worked out at 0.165.

Turning to `Cn1c(=O)c2[nH]cnc2n(C)c1=O` [Aminophylline (Truphylline)], the log2 surviving fraction came to 0.372.

Take `CN(C)[C@@H]1C(O)=C(C(N)=O)C(=O)[C@@]2(O)C(O)=C3C(=O)c4c(O)cccc4[C@@](C)(O)[C@H]3[C@H](O)[C@@H]12` [Oxytetracycline (Terramycin)]: the log2 surviving fraction was 0.00112.

In the case of `CN/C(=N\CCSCc1nc[nH]c1C)NC#N` [Cimetidine (Tagamet)], the log2 surviving fraction was found to be 0.521.
